In the supplement of paper PMC12217912:
The list shows a part of the results. The full chains were built here from the parent and the listed change. Inactive controls read about 0.05.

B1: TEV protease; numbered along this chain (parent)
chain: MGESLFKGPRDYNPISSSICHLTNESDGHTTSLYGIGFGPFIITNKHLFRRNNGTLVVQSLHGVFKVKDTTTLQQHLVDGRDMIIIRMPKDFPPFPQKLKFREPQREERICLVTTNFQTKSMSSMVSDTSCTFPSGDGIFWKHWIQTKDGQCGSPLVSTRDGFIVGIHSASNFTNTNNYFTSVPKNFMELLTNQEAQQWVSGWRLNADSVLWGGHKVFMVKPEEPFQPVKEATQL

Variants of: B1
Experiment: raw area under fraction-flipped curve 0-4 h after induction (AUC4h, not background-subtracted), DNA-recorder readout of cleavage of the substrate (dimensionless); higher = more cleavage of the substrate by the protease variant
Conditions: temperature: 34 °C; time window: 0-4 h after rhamnose induction
Description: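 In vivo DNA recorder in E. coli TOP10(DE3) ΔrhaA at 34 °C. Each TEVp single-site mutant (parent TEVp 0) is paired with a single-site variant of the 7-mer TEVs (canonical ENLYFQ|S). The substrate sits between flexible linkers in a Bxb1-sfGFP-TEVs-SsrA fusion, so cleavage stabilises Bxb1 and speeds flipping of a recombination array, read by NGS. The value is the raw area under the fraction-flipped curve over 0-4 h after rhamnose induction (AUC4h), with ≥20 reads per time point. It is not background-subtracted; inactive controls average about 0.047.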
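Further: Bxb1 expression induced with 0.2% (w/v) L-rhamnose at OD600 near 0.5, cultures sampled hourly, flipped fraction per protease–substrate barcode pair counted by paired-end Illumina sequencing.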

Variant | area with substrate ENLYFAS | area with substrate ENLYFCS | area with substrate ENLYFDS | area with substrate ENLYFES | area with substrate ENLYFFS | area with substrate ENLYFGS | area with substrate ENLYFIS | area with substrate ENLYFKS | area with substrate ENLYFLS | area with substrate ENLYFMS | area with substrate ENLYFNS | area with substrate ENLYFRS | area with substrate ENLYFSS | area with substrate ENLYFTS | area with substrate ENLYFVS | area with substrate ENLYFWS | area with substrate ENLYFYS | area with substrate ENLYFPS | area with substrate ENLYFHS
D161C | 0.0451 | 0.0699 | 0.0629 | 0.05 | 0.0657 | 0.058 | 0.0494 | 0.0561 | 0.0637 | 0.0499 | 0.0586 | 0.0525 | 0.0604 | 0.0618 | 0.0583 | 0.0518 | 0.0625 | – | –
D161F | 0.0583 | 0.058 | – | 0.0577 | 0.065 | 0.0511 | 0.0515 | – | 0.0555 | 0.0495 | 0.0568 | 0.0419 | – | 0.0459 | 0.0692 | 0.046 | 0.0493 | 0.0606 | –
G162M | 0.0496 | 0.0572 | – | 0.0647 | 0.0421 | 0.055 | 0.0477 | 0.0636 | 0.0471 | 0.0662 | 0.0662 | – | 0.0531 | 0.0613 | – | 0.0735 | – | 0.0461 | 0.0639
I164C | 0.0654 | 0.0613 | – | 0.067 | 0.0601 | – | 0.0586 | 0.0652 | – | 0.0583 | 0.0657 | 0.0582 | – | 0.0617 | 0.0521 | 0.0564 | 0.0573 | 0.0591 | 0.0584
G166R | 0.0374 | – | 0.0627 | 0.0491 | 0.0623 | – | 0.0468 | – | 0.0534 | – | – | 0.0563 | 0.0537 | 0.0486 | 0.0404 | 0.0433 | – | 0.059 | 0.0655
G166V | 0.0545 | 0.0343 | 0.0531 | 0.0527 | – | – | 0.0313 | 0.0585 | 0.0346 | 0.0463 | 0.0458 | 0.0096 | – | 0.0481 | – | 0.0631 | – | – | 0.0324
I167T | 0.0741 | – | – | – | 0.0721 | 0.0684 | 0.0489 | 0.0516 | – | 0.0684 | 0.059 | 0.0644 | – | – | 0.0568 | – | 0.0467 | 0.0784 | 0.0588
I167W | 0.0633 | 0.0457 | – | 0.0408 | 0.0723 | 0.0463 | 0.0553 | 0.0567 | 0.0632 | 0.0596 | – | 0.0621 | 0.0611 | 0.0469 | 0.0656 | 0.07 | 0.0609 | 0.0538 | 0.0609
H168W | 0.0612 | 0.0588 | 0.0582 | 0.0629 | 0.0765 | – | 0.0521 | 0.0778 | 0.0634 | 0.0532 | 0.0562 | 0.055 | 0.0531 | 0.0655 | 0.0585 | 0.054 | 0.065 | 0.0533 | 0.063
S169T | 0.0667 | 0.0532 | 0.0611 | 0.0689 | 0.0702 | 0.0478 | 0.0576 | 0.0592 | 0.0607 | 0.0757 | 0.0704 | 0.0614 | 0.0586 | 0.0555 | – | 0.0505 | 0.0482 | 0.0566 | 0.066
S171E | 0.0384 | – | – | 0.0497 | 0.055 | 0.0569 | 0.0577 | 0.0621 | 0.0576 | 0.0655 | – | – | 0.0577 | 0.06 | – | 0.033 | – | – | –
